Assay results published in PubChem BioAssay AID1362 (SRMLSC, 2008).
The list shows a part of the results. Further columns of the screen follow, without active or inactive calls. The list favours compounds with an active or inconclusive main result.

Assay: growth inhibition of WT strain, primary screen, mitochondrial fusion inhibitor project, WT and mutant strains, chemical genetic (AID 1362); note: tested in S. cerevisiae
Conditions: mitochondrial fusion phenotypic screen, at 10 µM

SMILES | inhibition [%]
CC(c1cccs1)N(Cc1ccco1)C(=S)Nc1ccc(F)c(Cl)c1 (stereo not given) | 49.7
CCN1CCN(c2cc(C(C)(C)C)nc3c(-c4ccccc4)c(C)nn23)CC1 | 87.3
Cc1ccc(OCc2n[nH]c(=S)n2-c2ccccc2)cc1C | 9.45
CCOC(=O)CSc1n[nH]c(-c2cccnc2)n1 | -4.35
FC(F)(F)c1cnc(Sc2nc3nccc(-c4ccc(Cl)cc4)n3n2)c(Cl)c1 | 11.7
CCCC[C@@H]1CNC(=S)N1CCc1cccc(F)c1 | 55.1
COc1ccc(OCCC(=O)N2CCCCC2)cc1 | 7.1
c1ccc(CC2CCN(c3nnnn3-c3ccccc3)CC2)cc1 | 5.33
CC(C)C(NC(=O)C12CC3CC(CC(C3)C1)C2)C(=O)NC1=NCCS1 (stereo not given) | 14.3
CCOc1ccccc1N1CCN(C(=O)Nc2ccc(Cl)c(Cl)c2)CC1 | 1.93
Cc1ccc(C(=O)N(CCCN(C)C)c2nc3ccc(Cl)cc3s2)cc1C | 89.4
CC#C[C@]1(O)CC[C@H]2[C@@H]3CCC4=CC(=O)CCC4=C3[C@@H](c3ccc(N(C)C)cc3)C[C@@]21C | 9.53
Cc1ccc(C(=O)Nc2ccc(S(=O)(=O)NCc3ccco3)cc2)cc1 | 36.8
Cc1ccc2c(C(=O)N3CCN(c4ccccc4)CC3)cc(-c3cccnc3)nc2c1C | 37.5
Cn1c(=O)[nH]c(=O)c2c1nc(Br)n2CCSc1ncccn1 | 6.35
CCc1ccc(OC)c(-c2csc(N)n2)c1 | 57.1
c1ccc(-c2nnc(-c3ccccn3)nc2NC2CCCCC2)cc1 | 61.5
O=C(Nc1nc(-c2cc(Cl)sc2Cl)cs1)c1cccs1 | 56.4
Cc1ccc(C(C(=O)NC(C)(C)C)N(Cc2cccs2)C(=O)c2ccc3c(c2)OCCO3)cc1 (stereo not given) | 22.6
COc1cccc(N2CCN(c3ncnc4c3[nH]c3ccc(F)cc34)CC2C)c1 (stereo not given) | 72.7
CCCCNCC#CCOc1cc(C)ccc1C(C)C | 61.2
CC1=NN(c2ccc(C)cc2C)C(=O)C1C(c1ccccc1)C1C(=O)N(c2ccc(C)cc2C)N=C1C (stereo not given) | -1.61

SMILES | inhibition [%]
O=C(Nc1ccc2c(c1)nc1n2CCN(Cc2ccccc2)C1)c1cccs1 | -11.9
Cc1nc2ccc(NC(=O)c3nn(CC(C)C)c(=O)c4ccccc34)cc2s1 | -2.73
Cc1cccc(OCCCC(=O)Nc2ccc(N3CCCCC3)cc2)c1C | 24.3
COC(=O)c1cc(NC(=S)Nc2cc(Cl)cc(Cl)c2)cc(C(=O)OC)c1 | 61.1
Cc1cc(C)nc(Nc2n[nH]c(-c3ccc(N)cc3)n2)n1 | 17.5
Cc1ccc2sc(N(CCCN(C)C)C(=O)c3nc4ccccc4s3)nc2c1C | 36.9
COc1ccccc1-c1cc(C(F)(F)F)nc(NCc2cccs2)n1 | -5.43
COc1ccc(Nc2nc(NC(C)(C)C)nc(N3CCCC3)n2)c(OC)c1 | 67.7
O=C(NCc1ccc2c(c1)OCO2)c1ccc(-c2ccc(Cl)cc2)o1 | 37.9
CC1CCN(c2ccccc2NC(=O)c2ccc(F)cc2)CC1 | 46.6
CCCOP(=O)(OCCC)C(Nc1cccc(C(F)(F)F)c1)c1ccc(C)cc1 (stereo not given) | 22.5
Cc1ccccc1NS(=O)(=O)c1ccc(NC(=O)CSCc2ccc(Br)cc2)cc1 | 25.8
Cc1oc2c(c1C(=O)NCc1cccnc1)C(=O)c1ccccc1C2=O | 87.5
O=C1C(Cl)=C(NC2CCCCC2)C(=O)N1Cc1ccccc1 | -5.4
Clc1ccc(/C=N/NC(=Nc2ccccc2)c2ccccn2)c(Cl)c1 | 73.6
Cc1ccc(-n2cc(CN3CCC(CO)(Cc4cccc(C(F)(F)F)c4)CC3)cn2)cc1 | 88.3
CCOc1ccc(CSCCNC(=S)Nc2ccccc2)cc1 | 54
N=c1c2c(n(Cc3ccc(F)cc3)c3c1CCC3)CCC2 | 20.5
O=C(Nc1cccc(F)c1)c1ccc(-c2ccccc2Cl)o1 | 46.5
COc1ccc(Nc2nc(C)c(-c3ccccc3)s2)cc1 | 13.7
Cc1ccc(C(=O)NCc2ccc(N3CCN(C(=O)OC(C)(C)C)CC3)cc2)cc1 | 4.38
O=C(NC(=S)Nc1ccc(Cl)cn1)C12CC3CC(CC(C3)C1)C2 | 40.5

SMILES | inhibition [%]
Cc1cc(C)n(-c2nc(C)nc3c2cnn3-c2ccccc2)n1 | 2.55
Cc1ccc2cc(/C=N/Nc3nc4ccccc4[nH]3)c(Cl)nc2c1 | 45.3
Cc1nc(N(C)Cc2ccccc2)c2nnn(Cc3ccccc3)c2n1 | 48.1
O=C(NNc1ccc(C2CCCCC2)cc1)C(O)(c1ccccc1)c1cccs1 (stereo not given) | 83.6
OC(COc1ccc2ccccc2c1Br)Cn1cnc(-c2ccccc2)c1 (stereo not given) | 70
CCCc1nc(SCC(=O)N2CCCc3ccccc32)c2c(=O)n(C)c(=O)n(C)c2n1 | 26.7
COC(=O)CN1C(c2ccc(Cl)cc2)=Nc2ccc(Cl)cc2C1c1ccccc1 (stereo not given) | 34.3
CCCNC(=S)N1CCN(C(c2ccccc2)c2ccccc2)CC1 | 34.6
Cc1cccc(C)c1NC(=O)CN(C)CC(=O)Nc1ccccc1Br | 16.7
CCOP(=O)(OCC)C(Nc1cccc(C(F)(F)F)c1)c1ccc(Br)cc1 (stereo not given) | -2.21
Cc1nc(-c2ccccc2)sc1-c1nc(-c2ccncc2)ncc1S(=O)(=O)c1ccccc1 | 11.3
Cc1cccc(Nc2nc(NCc3ccco3)c3ccccc3n2)c1 | 94
O=c1[nH]ncc(N2CCN(C(c3ccccc3)c3ccccc3)CC2)c1Cl | 36.2
CCOC(=O)c1cnc2ccc(OC)cc2c1Nc1ccc2c(c1)OCCO2 | 58.6
O=C(Nc1ccccc1C(=O)N/N=C/c1ccncc1)c1ccccc1 | 73.5
NC(=S)N/N=C/c1ccccc1OCCSc1ccc(Cl)cc1 | 8.63
CC(C)(C)c1cc(/C=N/O)cc(C(C)(C)C)c1O | 29.7
N=c1c2c(n(Cc3ccc(Cl)cc3)c3c1CCC3)CCC2 | 26
O=C(Nc1ncc(Cc2ccccc2Cl)s1)C1=NCCN1 | 67.9
O=C(Oc1cccc2c(O)cccc12)c1ccccc1 | 45.1
O=C(Nc1cc(S(=O)(=O)N2CCCCC2)ccc1Cl)c1ccccc1NS(=O)(=O)c1ccc(F)cc1 | 22
CCC(C)c1ccc(NC(=S)Nc2ccc(OC)c(OC)c2)cc1 (stereo not given) | 4.7

SMILES | inhibition [%]
CCN1CCN(CCNC(=O)c2ccc(/C=C3/Sc4ccccc4N(Cc4ccccc4C)C3=O)cc2)CC1 | 22.1
Cc1ccc(NC(=S)NCCc2ccccc2)c(C)c1 | 60
Cc1ccc2c(c1)c1c3n2CCCN(Cc2ccccc2)C3CCC1 (stereo not given) | 78.1
Cc1ccc2nc(N(CCCN(C)C)C(=O)CCc3ccccc3)sc2c1 | 91.4
CC(C)Cc1cc(C(=O)N2CCN(C(c3ccccc3)c3ccccc3)CC2)no1 | 34.2
S=C(N/N=C1\CCc2ccccc21)NC1CCCCC1 | 66.5
O=C(O)C1CCCCC1C(=O)Nc1ccc(F)cc1F (stereo not given) | 9.23
Cc1ccc(S(=O)(=O)c2nc(Nc3nccs3)sc2Cl)cc1 | 15.7
Cc1ccc(NC(=S)NC(C)CCc2ccccc2)cc1C (stereo not given) | 44.7
NC(N)=N/N=C/c1ccc(OCc2ccccc2Cl)cc1 | 60.6
COc1cccc(CN2CCN(C(=S)NCc3ccc(Cl)cc3)CC2)c1 | 63.8
c1ccc2c(-c3c[nH]c4ccccc34)c3ccccc3nc2c1 | 26.1
COc1ccc(C)cc1NC(=O)c1ccccc1NS(=O)(=O)c1ccc(Cl)s1 | 70.8
Cn1cc(C(=O)c2ccc(Cl)cc2Cl)cc1C(=O)O | 8.15
COc1ccccc1NC1=C(Cl)C(=O)N(C2CCCCC2)C1=O | 1.23
S=C(Nc1ccccc1Cl)N(Cc1ccccc1)Cc1ccccn1 | 24.2
Cc1[nH][nH]c(=O)c1C(c1c(C)[nH][nH]c1=O)c1cn(Cc2ccccc2Cl)c2ccccc12 | 6.08
O=c1cc(C(Cl)(Cl)Cl)oc2c1ccc1ccccc12 | 54.2
CCN(CC)S(=O)(=O)c1cnccc1N1CCN(c2cccc(Cl)c2)CC1 | 16.5
COc1cc(C(=O)OC2CC3CCC2(C)C3(C)C)ccc1OC(C)=O (stereo not given) | 23.1
S=C(NCc1ccco1)N1CCN(C(c2ccccc2)c2ccccc2)CC1 | 15
CCOCC(=O)Nc1cc(C(F)(F)F)ccc1Oc1cccc(Br)c1 | 19.6

SMILES | inhibition [%]
COc1ccc(N=Nc2nc3cc(Br)c(Br)cc3n2C)c(OC)c1 | 30.6
CCCCCCc1cc2cc(C(N)=O)c(=N)oc2cc1O | 74.7
CCCC12CN3CCN(CC(C3)/C1=N\NC(=O)c1ccc(C(C)(C)C)cc1)C2 | 8.86
O=C1/C(=C/c2cccc3ccccc23)CCCc2ccccc21 | -11.9
Cc1ccccc1Nc1cc2ccccc2c(=O)[nH]1 | 44.7
S=C(NCCc1ccc(Cl)cc1)NC1CCCC1 | 46.3
CCOC(=O)c1c(C)oc2c1c(CN1CCN(CCO)CC1)c(O)c1ccccc12 | 52.1
COCCNC(=O)c1cccc(Nc2nc(-c3ccccc3)c3cc(Cl)ccc3n2)c1 | 8.57
CCCC[C@@H]1CNC(=S)N1CCc1cccc2ccccc12 | 65.3
CC(Cc1cccs1)NC(=S)Nc1ccc(Cl)cc1 (stereo not given) | 62.7
CN(C(=O)c1ccc(COc2ccccc2Br)o1)c1ccccc1 | 28.1
C/C(=N\Nc1cccc2cccnc12)c1ccc(C)cc1 | 71.7
O=C1OC(c2ccc(F)cc2)=C/C1=C\c1ccc([N+](=O)[O-])o1 | 65.5
CN(CC(=O)O/N=C(\N)c1cccc([N+](=O)[O-])c1)S(=O)(=O)c1ccccc1 | -52.8
CCN(CC)CCNC(=O)Cn1c(-c2ccccn2)nc2ccccc21 | -37.8
O=C(Nc1nc(COc2ccccc2)cs1)C12CC3CC(CC(C3)C1)C2 | 23
Cc1ccc(C(=O)N2CCN(c3ccccc3Cl)CC2)cc1[N+](=O)[O-] | 61.3
CCc1cccc(CC)c1NC(=S)NC(C)c1ccccc1 (stereo not given) | 13.3
Cc1ccc2nc(-c3ccc(NC(=S)NC4CC(C)(C)NC(C)(C)C4)cc3)sc2c1 | 59.9
O=C(Nc1nnc(-c2ccc3c(c2)CCCC3)o1)c1ccccc1 | 73.9
CC(C(=O)NC(=O)NC1CCCCC1)N1CCN(C(c2ccccc2)c2ccccc2)CC1 (stereo not given) | 51.9
N#Cc1sc2nc(N3CCCCC3)c3c(c2c1N)CCCC3 | 4
